# Molecular target: human recombinant P2X7 receptor (Homo sapiens (Human), UniProt Q99572)
# Assay: YO-PRO1 assay, P2X7 receptor antagonistic activity
# Conditions: HEK-293 cells expressing human recombinant P2X7 receptor; YO-PRO-1 fluorescence; ATP 250 μM for 90 minutes
# Chain of UniProt Q99572 (Q99572 whole entry): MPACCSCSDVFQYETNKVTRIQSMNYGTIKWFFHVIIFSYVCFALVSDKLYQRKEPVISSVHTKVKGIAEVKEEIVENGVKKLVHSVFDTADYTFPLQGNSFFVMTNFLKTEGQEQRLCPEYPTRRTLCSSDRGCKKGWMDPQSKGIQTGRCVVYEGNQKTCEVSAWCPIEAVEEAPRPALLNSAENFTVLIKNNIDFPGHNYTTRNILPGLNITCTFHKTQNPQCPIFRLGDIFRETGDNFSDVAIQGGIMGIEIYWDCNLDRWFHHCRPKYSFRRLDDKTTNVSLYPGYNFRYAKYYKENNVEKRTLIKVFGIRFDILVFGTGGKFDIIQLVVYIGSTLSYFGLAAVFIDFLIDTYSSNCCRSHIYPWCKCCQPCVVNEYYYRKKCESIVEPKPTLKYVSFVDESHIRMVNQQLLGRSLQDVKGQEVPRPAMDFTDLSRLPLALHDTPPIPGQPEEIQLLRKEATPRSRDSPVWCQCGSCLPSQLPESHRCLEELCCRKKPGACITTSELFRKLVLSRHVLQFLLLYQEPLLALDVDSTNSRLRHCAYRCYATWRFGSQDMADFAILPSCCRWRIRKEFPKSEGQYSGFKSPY
row,SMILES,IC50 [nM]
1,"O=C(NCC1(c2cccnc2)CCCCCC1)c1ccc2[nH]ccc2c1Cl [Example 19, 4-Chloro-1H-indole-5-carboxylic acid (1-pyridin-3-yl-cycloheptylmethyl)-amide]",18
2,"Cc1cc(C(=O)NCC2(O)CCCCC2)c(Cl)c2cc[nH]c12 [Example 20, 4-Chloro-7-methyl-1H-indole-5-carboxylic acid (1-hydroxy-cyclohexylmethyl)-amide]",6.1
3,"O=C1Cc2c(ccc(C(=O)NCC3(O)CCCCCC3)c2Cl)N1 [Example 21, 4-Chloro-2-oxo-2,3-dihydro-1H-indole-5-carboxylic acid (1-hydroxy-cycloheptylmethyl)-amide]",302
4,"Cc1cc2c(Cl)c(C(=O)NCC3(O)CCCCC3)ccc2[nH]1 [Example 22, 4-Chloro-2-methyl-1H-indole-5-carboxylic acid (1-hydroxy-cyclohexylmethyl)-amide]",1180
5,"CSc1c[nH]c2c(I)cc(C(=O)NCC3(O)CCCCC3)c(Cl)c12 [Example 23, 4-Chloro-7-iodo-3-methylsulfanyl-1H-indole-5-carboxylic acid (1-hydroxy-cyclohexylmethyl)-amide]",1150
6,"Cc1cc(C(=O)NCC2(O)CCC(F)(F)CC2)c(Cl)c2cc[nH]c12 [Example 24, 4-Chloro-7-methyl-1H-indole-5-carboxylic acid (4,4-difluoro-1-hydroxy-cyclohexylmethyl)-amide]",4.7
7,"Cc1cc(C(=O)NCC2(O)CCCCCC2)c(Cl)c2cc[nH]c12 [Example 25, 4-Chloro-7-methyl-1H-indole-5-carboxylic acid (1-hydroxy-cycloheptylmethyl)-amide]",2.9
8,"O=C(NCC1(O)CCCCCC1)c1ccc2[nH]cc(F)c2c1Cl [Example 26, 4-Chloro-3-fluoro-1H-indole-5-carboxylic acid (1-hydroxy-cycloheptylmethyl)-amide]",11.4
9,"COc1c(C(=O)NCC2(O)CCCCCC2)ccc2[nH]ccc12 [Example 27, 4-Methoxy-1H-indole-5-carboxylic acid (1-hydroxy-cycloheptylmethyl)-amide]",682
10,"O=C(NCC1(O)CCCCC1)c1ccc2[nH]cc(Cl)c2c1Cl [Example 28, 3,4-Dichloro-1H-indole-5-carboxylic acid (1-hydroxy-cyclohexylmethyl)-amide]",151
11,"O=C(NCC1(O)CCCCC1)c1cc([N+](=O)[O-])c2[nH]ccc2c1Cl [Example 29, 4-Chloro-7-nitro-1H-indole-5-carboxylic acid (1-hydroxy-cyclohexylmethyl)-amide]",20
12,"COC(=O)C1(CNC(=O)c2ccc3[nH]ccc3c2Cl)CCCCC1 [Example 30, 1-{[(4-Chloro-1H-indole-5-carbonyl)-amino]-methyl}-cyclohexanecarboxylic acid methyl ester]",221
13,"O=C(NCC1(CO)CCCCC1)c1ccc2[nH]ccc2c1Cl [Example 31, 4-Chloro-1H-indole-5-carboxylic acid (1-hydroxymethyl-cyclohexylmethyl)-amide]",38
14,"Nc1cc(C(=O)NCC2(O)CCCCC2)c(Cl)c2cc[nH]c12 [Example 32, 7-Amino-4-chloro-1H-indole-5-carboxylic acid (1-hydroxy-cyclohexylmethyl)-amide]",11
15,"Cc1c[nH]c2ccc(C(=O)NCC3(O)CCCCCC3)c(Cl)c12 [Example 33, 4-Chloro-3-methyl-1H-indole-5-carboxylic acid (1-hydroxy-cycloheptylmethyl)-amide]",44
16,"NC(=O)C1(CNC(=O)c2ccc3[nH]ccc3c2Cl)CCCCC1 [Example 34, 4-Chloro-1H-indole-5-carboxylic acid (1-carbamoyl-cyclohexylmethyl)-amide]",130
17,"CNC(=O)C1(CNC(=O)c2ccc3[nH]ccc3c2Cl)CCCCC1 [Example 35, 4-Chloro-1H-indole-5-carboxylic acid (1-methylcarbamoyl-cyclohexylmethyl)-amide]",666
18,"N#CC1(CNC(=O)c2ccc3[nH]ccc3c2Cl)CCCCC1 [Example 36, 4-Chloro-1H-indole-5-carboxylic acid (1-cyano-cyclohexylmethyl)-amide]",27
19,"CC(C)(C)OC(=O)NC1(CNC(=O)c2ccc3[nH]ccc3c2Cl)CCCCC1 [Example 37, (1-{[(4-Chloro-1H-indole-5-carbonyl)-amino]-methyl}-cyclohexyl)-carbamic acid tert-butyl ester]",420
20,"O=C(NCC1(O)CCC(F)(F)CC1)c1c(Cl)cc2[nH]ccc2c1Cl [Example 38, 4,6-Dichloro-1H-indole-5-carboxylic acid (4,4-difluoro-1-hydroxy-cyclohexylmethyl)-amide]",1320
21,"Cc1cc2[nH]ccc2c(Cl)c1C(=O)NCC1(O)CCCCC1 [Example 40, 4-Chloro-6-methyl-1H-indole-5-carboxylic acid (1-hydroxy-cyclohexylmethyl)-amide]",1600

row,SMILES,IC50 [nM]
1,"O=C(NCC1(O)CCCC1)c1ccc2[nH]ccc2c1Cl [Example 41, 4-Chloro-1H-indole-5-carboxylic acid (1-hydroxy-cyclopentylmethyl)-amide]",264
2,"O=C(NCC1(O)CCCCCCC1)c1ccc2[nH]ccc2c1Cl [Example 42, 4-Chloro-1H-indole-5-carboxylic acid (1-hydroxy-cyclooctylmethyl)-amide]",14
3,"COC1(CNC(=O)c2ccc3[nH]ccc3c2Cl)CCCCC1 [Example 43, 4-Chloro-1H-indole-5-carboxylic acid (1-methoxy-cyclohexylmethyl)-amide]",218
4,"C[C@H](NC(=O)c1ccc2[nH]ccc2c1Cl)C1CCCCC1 [Example 44, 4-Chloro-1H-indole-5-carboxylic acid ((S)-1-cyclohexyl-ethyl)-amide]",1430
5,"C[C@@H](NC(=O)c1ccc2[nH]ccc2c1Cl)C1CCCCC1 [Example 45, 4-Chloro-1H-indole-5-carboxylic acid ((R)-1-cyclohexyl-ethyl)-amide]",81
6,"CC(=O)NC1(CNC(=O)c2ccc3[nH]ccc3c2Cl)CCCCC1 [Example 46, 4-Chloro-1H-indole-5-carboxylic acid (1-acetylamino-cyclohexylmethyl)-amide]",209
7,"CS(=O)(=O)NC1(CNC(=O)c2ccc3[nH]ccc3c2Cl)CCCCC1 [Example 47, 4-Chloro-1H-indole-5-carboxylic acid (1-methanesulfonylamino-cyclohexylmethyl)-amide]",21
8,"Cc1cc(C(=O)NCC2(O)CCCCC2)c(Cl)c2c(Br)c[nH]c12 [Example 50, 3-Bromo-4-chloro-7-methyl-1H-indole-5-carboxylic acid (1-hydroxy-cyclohexylmethyl)-amide]",246
9,"COC(=O)CS(=O)(=O)NC1(CNC(=O)c2ccc3[nH]ccc3c2Cl)CCCCC1 [Example 51, (1-{[(4-Chloro-1H-indole-5-carbonyl)-amino]-methyl}-cyclohexylsulfamoyl)-acetic acid methyl ester]",24
10,"CC(C)Cc1cc(C(=O)NCC2(O)CCCCCC2)c(Cl)c2cc[nH]c12 [Example 52, 4-Chloro-7-isobutyl-1H-indol-5-carboxylic acid (1-hydroxy-cycloheptylmethyl)-amide]",5.9
11,"COCCCc1cc(C(=O)NCC2(O)CCCCCC2)c(Cl)c2cc[nH]c12 [Example 53, 4-Chloro-7-(3-methoxy-propyl)-1H-indole-5-carboxylic acid (1-hydroxy-cycloheptylmethyl)-amide]",4.4
12,"CC(C)Cc1cc(C(=O)NCC2(O)CCC(F)(F)CC2)c(Cl)c2cc[nH]c12 [Example 54, 4-Chloro-7-isobutyl-1H-indole-5-carboxylic acid (4,4-difluoro-1-hydroxy-cyclohexylmethyl)-amide]",13
13,"COCCCc1cc(C(=O)NCC2(O)CCC(F)(F)CC2)c(Cl)c2cc[nH]c12 [Example 55, 4-Chloro-7-(3-methoxy-propyl)-1H-indole-5-carboxylic acid (4,4-difluoro-1-hydroxy-cyclohexylmethyl)-amide]",6.7
14,"O=C(NCC1(NS(=O)(=O)CCO)CCCCC1)c1ccc2[nH]ccc2c1Cl [Example 56, 4-Chloro-1H-indole-5-carboxylic acid [1-(2-hydroxy-ethanesulfonylamino)-cyclohexylmethyl]-amide]",9
15,"Cc1c(C(=O)NCC2(O)CCCCC2)ccc2[nH]ccc12 [Example 57, 4-Methyl-1H-indole-5-carboxylic acid (1-hydroxy-cyclohexylmethyl)-amide]",68
16,"Cc1ncc(C2(CNC(=O)c3ccc4[nH]ccc4c3Cl)CCCCC2)cn1 [Example 58, 4-Chloro-1H-indole-5-carboxylic acid [1-(2-methyl-pyrimidin-5-yl)-cyclohexylmethyl]-amide]",6.4
17,"COc1cc(C(=O)NCC2(O)CCC(F)(F)CC2)c(Cl)c2cc[nH]c12 [Example 59, 4-Chloro-7-methoxy-1H-indole-5-carboxylic acid (4,4-difluoro-1-hydroxy-cyclohexylmethyl)-amide]",5.4
18,"Cc1ncc(C2(CNC(=O)c3ccc4[nH]ccc4c3Cl)CCC(F)(F)CC2)cn1 [Example 60, 4-Chloro-1H-indole-5-carboxylic acid [4,4-difluoro-1-(2-methyl-pyrimidin-5-yl)-cyclohexylmethyl]-amide]",6.3
19,"Cc1ncc(C2(CNC(=O)c3cc(C)c4[nH]ccc4c3Cl)CCC(F)(F)CC2)cn1 [Example 61, 4-Chloro-7-methyl-1H-indole-5-carboxylic acid [4,4-difluoro-1-(2-methyl-pyrimidin-5-yl)-cyclohexylmethyl]-amide]",4
20,"Cc1ncc(C2(CNC(=O)c3cc(C)c4[nH]ccc4c3Cl)CCCCC2)cn1 [Example 62, 4-Chloro-7-methyl-1H-indole-5-carboxylic acid [1-(2-methyl-pyrimidin-5-yl)-cyclohexylmethyl]-amide]",4.1
21,"Cc1c(C(=O)NCC2(O)CCC(F)(F)CC2)cc(C)c2[nH]ccc12 [Example 63, 4,7-Dimethyl-1H-indole-5-carboxylic acid (4,4-difluoro-1-hydroxy-cyclohexylmethyl)-amide]",4

# Reference: patent publication US9556117B2, “Indole carboxamide derivatives as P2X7 receptor antagonists” (ACTELION PHARMACEUTICALS LTD, priority 2012, dated 2017)
